From PubChem BioAssay AID504832 (National Center for Advancing Translational Sciences (NCATS), 2011)
In all, about 310,000 compounds went through this assay and about 18,000 (5.8%) were called active. Inconclusive results, whose numbers are uncertain, are shown with a selection of clear calls. Calls come from the whole dose curve; as a rule, active = well fitted inhibition curve with a large enough effect; inconclusive = small, poorly fitted or top-dose-only effect, or another doubt; inactive = no such curve, though single readings can be large or run the other way. Potencies of inconclusive entries are left out as doubtful fits.
% is set by controls: 0 for no effect and ±100 for the full control effect; potency is the fitted concentration of half-maximal effect; tags give direction and shape of the fitted curve.

Test: Primary qHTS for delayed death inhibitors of the malarial parasite plastid, 48 hour incubation
Conditions: P. falciparum luciferase growth in erythrocytes; series mostly up to 28.7 µM; activity change, negative = inhibition: at the top concentration
Outline: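 Firefly luciferase activity from engineered P. falciparum reports growth; inhibitors lower the luminescent signal. Cultures contained 2% hematocrit erythrocytes at 0.1% final parasitemia.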
With `O=C(N/N=C\c1ccc2c(c1)OCO2)c1ccc(Cn2cc(Br)c([N+](=O)[O-])n2)o1` the Potency was inconclusive [inhibitor, partial curve, poor fit]. In the case of `C#CCNC(=O)C1=C[C@@H](C2CCCCC2)C[C@@H](OCc2ccc(CO)cc2)O1`, the Potency is reported as inconclusive [inhibitor, partial curve]. In the case of `O=C(CC1S/C(=N/N=C/c2cccs2)NC1=O)Nc1ccc(Cl)c(Cl)c1` (centres undefined), the “activity change, negative = inhibition” value is reported as inactive: 17%. With `CCCC(=O)C1=C(O)C(C(=O)OC)C(C)(C)CC1=Nc1ccc(N)cc1` (centres undefined) the Potency was inconclusive [inhibitor, single point]. For `Cc1cc(C)c2nc(NCCCNC(=S)NCCCN(C)C)c(C#N)cc2c1`, the Potency was inconclusive [inhibitor, single point]. With `COc1cccc(CNC(=O)c2cccc(S(=O)(=O)N3CCN(c4ccc(F)cc4)CC3)c2)c1` the Potency was inconclusive [inhibitor, single point]. In the case of `COc1ccc(NC(=O)CSc2nc3ccccc3c(=O)n2CCCN2CCC(C)CC2)c(OC)c1`, the Potency is reported as inconclusive [inhibitor, partial curve]. In the case of `Cc1nn(CC(=O)NC2CCC(C)CC2)c(C)c1[N+](=O)[O-]` (centres undefined), the “activity change, negative = inhibition” value is reported as inactive: 22.8%. In the case of `CCC(C)Sc1nc2c(c(=O)[nH]1)C(c1cccs1)C1=C(CCCC1=O)N2` (centres undefined), the Potency is reported as inconclusive [inhibitor, single point]. With `C(=C\c1nccc2c1[nH]c1ccccc12)/c1ccccc1` the Potency was active: 1.85 µM. With `CCn1cc(C(=O)NCC(OC)OC)c(=O)c2cc(S(=O)(=O)N3CCOCC3)ccc21` the “activity change, negative = inhibition” value was inactive: 4.91%. With `COCCNC(=O)COc1ccc(Nc2ccccc2)cc1` the Potency was inconclusive [inhibitor, partial curve, poor fit]. For `CCN(CC)CCSc1nnc2c3cc(C)ccc3n(Cc3ccccc3)c2n1`, the Potency was inconclusive [inhibitor, single point]. For `CCCc1c(C(=O)N/N=C/c2ccc(C)s2)nnn1-c1nonc1N`, the “activity change, negative = inhibition” value was inactive: 20.1%. With `CC(C)c1cccc(C(C)C)c1OC(=O)[C@H]1OC(c2ccc(Br)cc2)=C[C@@H]1c1ccc(Br)cc1` the Potency was inconclusive [inhibitor, single point]. In the case of `CCN1CCN(CC(=O)c2c(C)n(Cc3ccccc3)c3ccc(OC)cc23)CC1`, the Potency is reported as inconclusive [inhibitor, partial curve, poor fit]. For `CCOC(=O)c1ccc(S(=O)(=O)N2CCN(C(=O)C3CSC4(C)CCC(=O)N34)CC2)cc1` (centres undefined), the Potency was inconclusive [inhibitor, single point]. For `O=C(CCNS(=O)(=O)c1ccccc1C(F)(F)F)N1CCCCCCC1`, the Potency was inconclusive [inhibitor, single point]. For `COc1ccccc1OCc1ccc(C(=O)N(C)C)o1`, the Potency was inconclusive [inhibitor, single point]. For `NC(=O)NC(=O)COC(=O)c1ccc(Cl)c(S(=O)(=O)N(Cc2ccccc2)c2ccc(Cl)cc2)c1`, the Potency was inconclusive [inhibitor, single point]. With `c1ccc(C(c2ccccc2)c2noc(CN3CCN(CC4CC4)CC3)n2)cc1` the Potency was inconclusive [inhibitor, partial curve]. In the case of `CCCCCC(=O)Nc1nc(C)c(-c2csc(Nc3cc(Cl)ccc3C)n2)s1`, the Potency is reported as inconclusive [inhibitor, single point]. For `Cc1ccc(SCC(=O)Nc2nccs2)cc1`, the “activity change, negative = inhibition” value was inactive: 38.4%. With `CCC(C)n1c(-c2cc(OC)c(OC)c(OC)c2)nc2nc3ccccc3nc21` (centres undefined) the Potency was active: 13.1 µM. For `COc1ccccc1C(=O)NCC(=O)Nc1ccc2c(c1)OCO2`, the “activity change, negative = inhibition” value was inactive: 8.28%. For `COc1ccc(NC(=O)CN(C)C(=O)CCCSc2nc3ccccc3[nH]2)cc1`, the Potency was inconclusive [inhibitor, single point]. In the case of `O=C(NCc1nc2ccccc2[nH]1)C1=C[C@H](C2CC2)C[C@H](OCc2ccc(CO)cc2)O1`, the Potency is reported as inconclusive [inhibitor, single point]. In the case of `Cc1cc(C(C)(C)C)oc1C(=O)Nc1ccc(CC(=O)O)cc1`, the Potency is reported as inconclusive [inhibitor, single point]. With `N=c1c(S(=O)(=O)c2ccc(Cl)cc2)cc2c(=O)n3ccccc3nc2n1CCc1ccccc1` the Potency was inconclusive [inhibitor, partial curve, poor fit]. With `CCOC(=O)N1CCN(S(=O)(=O)c2ccc3c(c2)CC(C)N3C(=O)C2CC2)CC1` (centres undefined) the Potency was inconclusive [inhibitor, single point]. In the case of `CC(=O)N1CCN(c2ccc([N+](=O)[O-])cc2)CC1`, the Potency is reported as inconclusive [inhibitor, single point]. For `Cc1ccc(-c2csc(/C(C#N)=C(\O)CCl)n2)cc1`, the “activity change, negative = inhibition” value was inactive: 58.4%. In the case of `COc1ccc(CC2(CO)CCN(Cc3cccnc3)CC2)cc1`, the Potency is reported as active: 10.4 µM. For `COc1ccc(OC)c(-c2csc(N(CC3CCCO3)C(=O)Cc3ccccc3)n2)c1` (centres undefined), the Potency was inconclusive [inhibitor, single point]. For `CC(=O)N1CCC(C(=O)Nc2ccccc2)(N(Cc2ccccc2)C(=O)c2cccnc2)CC1`, the Potency was inconclusive [inhibitor, full curve, poor fit]. With `CCN1CCN(Cc2c(O)ccc3c(=O)c(-c4ccc(OC)c(OC)c4)c(C)oc23)CC1` the Potency was inconclusive [inhibitor, partial curve, poor fit]. In the case of `CCN(CC)CCNC(=O)c1ccc(NC(=O)COc2ccc3c(c2)CCC3)cc1`, the Potency is reported as inconclusive [inhibitor, single point]. For `COC(=O)C1=CNC=C(C(=O)OC)C1c1cccc2ccccc12`, the Potency was active: 11.7 µM. For `C=CCN1CC(c2nc3ccccc3n2CCOc2ccccc2)CC1=O` (centres undefined), the Potency was active: 11.7 µM. In the case of `O=C(CCCNS(=O)(=O)c1cccc2nsnc12)NCc1ccc(Cl)cc1`, the Potency is reported as inconclusive [inhibitor, full curve, poor fit]. In the case of `COc1ccccc1N1CCN(S(=O)(=O)c2ccc3c(c2)NC(=O)CS3)CC1`, the Potency is reported as inconclusive [inhibitor, partial curve, poor fit]. With `CS(=O)(=O)N(CC(=O)Nc1ccc(CC#N)cc1)c1ccc(C23CC4CC(CC(C4)C2)C3)cc1` the Potency was active: 10.4 µM. With `Cc1ccc(F)c([C@H]2[C@H]3C=CC[C@@H](C)[C@@H]3C(=O)N2Cc2ccccc2)c1` the Potency was inconclusive [inhibitor, single point]. For `CCCCC(=O)Nc1ccc(C(=O)NNC(=S)NC(=O)c2ccccc2[N+](=O)[O-])cc1`, the Potency was inconclusive [inhibitor, single point]. With `CCOc1nc(NC(=O)NS(=O)(=O)Oc2cccc(Cl)c2)nc(-c2ccccc2)n1` the “activity change, negative = inhibition” value was inactive: 27.1%. For `O=C(Oc1ccc2c(c1)O/C(=C\c1ccncc1)C2=O)c1cccs1`, the Potency was inconclusive [inhibitor, partial curve, poor fit]. With `O=C(NCCCCNC(=O)C(F)(F)F)C(F)(F)F` the “activity change, negative = inhibition” value was inactive: -1.91%. In the case of `COc1ccc(C2=NN3C(=O)c4c(ccc(OC)c4OC)C3C2)cc1` (centres undefined), the Potency is reported as active: 2.62 µM. With `CCc1ccccc1NC(=O)N1C[C@H]2C[C@@H](C1)c1cccc(=O)n1C2` the Potency was inconclusive [inhibitor, single point]. With `CC(=O)N1CCN=C1SCc1ccc(Cl)cc1` the “activity change, negative = inhibition” value was inactive: 1.87%. In the case of `CCCCCCC(=O)Nc1nc(C)c(-c2csc(Nc3ccccc3OC)n2)s1`, the Potency is reported as inconclusive [inhibitor, full curve, poor fit]. With `CCC1CCCCN1c1cc(C)nc2cc(-c3cccc(C)c3)nn12` (centres undefined) the Potency was inconclusive [inhibitor, single point]. For `CCOC(=O)c1cnc2c(C)c(C)ccc2c1NCCN1CCOCC1`, the Potency was inconclusive [inhibitor, partial curve, poor fit]. For `CC1(C)CC(N2CCN(C(c3ccccc3)c3ccccc3)CC2)=CC(=[N+]2CCCCC2)C1`, the Potency was active: 0.415 µM. In the case of `CCN1/C(=C/c2ccc3cc(C)cc(C)c3[n+]2CC)Sc2cc(C)ccc21`, the Potency is reported as active: 11.7 µM. In the case of `CCc1n(CC(O)COCC2CC=CCC2)c2ccccc2[n+]1C` (centres undefined), the Potency is reported as inconclusive [inhibitor, full curve]. In the case of `Cc1nc(C(=O)NCC(=O)c2ccc(Cl)cc2)c(C(F)(F)F)o1`, the Potency is reported as inconclusive [inhibitor, single point]. In the case of `OCC1(CCc2ccccc2)CCN(C/C=C/c2ccccc2)CC1`, the Potency is reported as inconclusive [inhibitor, partial curve, poor fit]. In the case of `COc1ccc(OC)c(C(=O)N2CCC(C(=O)c3ccc(F)cc3)CC2)c1`, the “activity change, negative = inhibition” value is reported as inactive: -15.6%. With `COc1ccc(-c2nnc(OC)c3ccccc23)cc1` the Potency was inconclusive [inhibitor, single point]. For `COc1ccc(N(CC(=O)Nc2ccc3c(c2)OCO3)S(=O)(=O)c2ccc(C)cc2)cc1OC`, the Potency was inconclusive [inhibitor, partial curve]. In the case of `CC(NC(=O)c1ccc2nc[nH]c2c1)c1ccccc1` (centres undefined), the “activity change, negative = inhibition” value is reported as inactive: 9.95%. With `CSc1ccc(/C=C(/NC(=O)c2ccccc2)C(=O)N2CCN(C)CC2)cc1` the Potency was inconclusive [inhibitor, partial curve, poor fit]. In the case of `Cc1cccc(N2C(=O)N3[C@H](c4ccc(Br)cc4)[C@@H]4C(=O)N(C(C)(C)C)C(=O)[C@@H]4[C@]3(Cc3ccc(Cl)cc3)C2=O)c1`, the Potency is reported as inconclusive [inhibitor, full curve, poor fit].
